Laboratory results as given in the supplement of paper PMC9446081.
The whole screen tested about 39,000 compounds, of which about 220 (0.56%) showed activity. This is one part of the list.

tested on: Escherichia coli K-12 BW25113; assay: relative growth (OD600 normalised to plate interquartile mean) (fraction); higher = less growth inhibition, active = 0.2 or less; conditions: 50 µM; LB; incubation time: overnight (16-24 h)
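Also: static incubation at 37 °C against the wild-type strain, values averaged over two biological replicates.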

Row | Compound | relative growth
1 | C[C@@H]1CN([C@@H](C)CO)C(=O)c2cccc(NS(=O)(=O)c3cn(C)cn3)c2O[C@@H]1CN(C)C(=O)NC1CCCCC1 | inactive: 0.986
2 | C[C@@H]1CN([C@H](C)CO)C(=O)c2cc(NS(=O)(=O)c3ccc(Cl)cc3)ccc2O[C@H]1CN(C)Cc1ccc(Cl)c(Cl)c1 | inactive: 0.976
3 | C[C@@H]1CN([C@@H](C)CO)C(=O)c2cc(NS(=O)(=O)c3ccc(F)cc3)ccc2O[C@@H]1CN(C)S(=O)(=O)c1ccccc1 | inactive: 1.02
4 | C[C@@H]1CN([C@H](C)CO)C(=O)c2cc(NC(=O)CCCCCC(=O)Nc3ccccc3N)ccc2O[C@@H]1CN(C)C(=O)Nc1ccccc1 | inactive: 1
5 | C[C@@H]1CN([C@@H](C)CO)C(=O)c2cc(NS(=O)(=O)c3ccc(F)cc3)ccc2O[C@@H](C)CCCCO[C@@H]1CN(C)C(=O)Nc1ccc(F)cc1 | inactive: 0.997
6 | C[C@H](CO)N1C[C@H](C)[C@@H](CN(C)Cc2ccc(Cl)c(Cl)c2)Oc2ccc(NS(=O)(=O)c3cccs3)cc2C1=O | inactive: 0.998
7 | COc1ccc(CN(C)C[C@H]2OCCCC[C@@H](C)Oc3ccc(NS(=O)(=O)c4ccc(Cl)cc4)cc3C(=O)N([C@H](C)CO)C[C@H]2C)cc1 | inactive: 1.01
8 | C[C@H]1CN([C@@H](C)CO)C(=O)c2cccc(NC(=O)c3cnccn3)c2O[C@H]1CN(C)S(=O)(=O)c1ccc(F)cc1 | inactive: 1.01
9 | C[C@@H]1CN([C@H](C)CO)C(=O)c2cc(NC(=O)Nc3ccccc3)ccc2O[C@@H](C)CCCCO[C@H]1CN(C)Cc1ccccc1 | inactive: 1.02
10 | O=C1C[C@@H]2C(=O)NCCN2C(NC(=O)c2ccccc2)=N1 | inactive: 1.02
11 | C[C@@H]1CN([C@@H](C)CO)C(=O)c2cc(NC(=O)Cc3cn(C)c4ccccc34)ccc2O[C@H]1CN(C)S(C)(=O)=O | inactive: 0.985
12 | CN1CCN(C(=O)C[C@@H]2CC[C@H]3[C@@H](COC[C@@H](O)CN3CC3CCCC3)O2)CC1 | inactive: 1
13 | C[C@H]1CN([C@@H](C)CO)C(=O)c2cc(NS(=O)(=O)c3cccs3)ccc2O[C@H]1CN(C)CC1CC1 | inactive: 0.987
14 | Cc1ccc(S(=O)(=O)N(C)C[C@@H]2OCCCC[C@H](C)Oc3ccc(NC(=O)C4CCCCC4)cc3C(=O)N([C@@H](C)CO)C[C@@H]2C)cc1 | inactive: 1.01
15 | COc1ccc2c(c1)[C@@]1(CC(=O)N(Cc3ccccc3)C1=O)C(=O)N2CCCn1c(=O)n(C)c2ccccc21 | inactive: 1.02
16 | C[C@H](CO)N1C[C@H](C)[C@H](CN(C)C(=O)C2CCCCC2)Oc2cc(C#Cc3ccncc3)ccc2S1(=O)=O | inactive: 0.975
17 | C[C@@H]1CN([C@H](C)CO)C(=O)c2cc(NC(=O)C3CC3)ccc2O[C@@H]1CN(C)Cc1ccc2c(c1)OCO2 | inactive: 0.999
18 | C[C@H](CO)N1C[C@H](C)[C@H](CN(C)S(=O)(=O)c2ccc(F)cc2)Oc2ccc(NC(=O)Cc3ccccc3)cc2CC1=O | inactive: 0.99
19 | C[C@H]1CN([C@@H](C)CO)C(=O)c2cc(NC(=O)Nc3ccc(F)cc3)ccc2O[C@@H]1CN(C)C(=O)Nc1ccc(C(F)(F)F)cc1 | inactive: 1.02
20 | COCCCCC(=NOCCN)c1ccc(C(F)(F)F)cc1.O=C(O)C=CC(=O)O | inactive: 0.949

Row | Compound | relative growth
21 | C[C@@H]1CCCCO[C@H](CN(C)C(=O)Nc2ccccc2)[C@@H](C)CN([C@@H](C)CO)C(=O)c2cc(NC(=O)CCC(F)(F)F)ccc2O1 | inactive: 1.02
22 | C[C@H]1CN([C@@H](C)CO)C(=O)c2cc(NC(=O)Nc3cccc4ccccc34)ccc2O[C@H]1CN(C)Cc1ccc(C(=O)Nc2ccccc2N)cc1 | inactive: 1.02
23 | C[C@@H]1CCCCO[C@H](CN(C)Cc2ccc3c(c2)OCO3)[C@@H](C)CN([C@H](C)CO)C(=O)c2cc(NC(=O)NC3CCCCC3)ccc2O1 | inactive: 0.99
24 | COc1cc2c(cc1OC)CN(C(=O)[C@H]1[C@@H]3C(=O)O[C@@H](c4ccccc4)[C@@H](c4ccccc4)N3[C@@H](c3ccccc3OCCO)[C@]13C(=O)Nc1ccc(C#CC4(O)CCCCCC4)cc13)CC2 | inactive: 1.08
25 | COc1ccc(S(=O)(=O)N(C)C[C@H]2Oc3ccc(NC(=O)Cc4ccccc4)cc3CC(=O)N([C@@H](C)CO)C[C@@H]2C)cc1 | inactive: 1.04
26 | C[C@@H]1CCCCO[C@H](CN(C)C(=O)Nc2cccc3ccccc23)[C@@H](C)CN([C@@H](C)CO)C(=O)c2cc(NS(=O)(=O)c3cn(C)cn3)ccc2O1 | inactive: 1
27 | CC(C)NC(=O)N(C)C[C@@H]1OCCCC[C@@H](C)Oc2ccc(NC(=O)CCCCCC(=O)Nc3ccccc3N)cc2C(=O)N([C@H](C)CO)C[C@@H]1C | inactive: 0.996
28 | Cc1ccc(S(=O)(=O)Nc2ccc3c(c2)C(=O)N([C@@H](C)CO)C[C@@H](C)[C@@H](CN(C)CC2CCCCC2)OCCCC[C@H](C)O3)cc1 | inactive: 0.965
29 | C[C@@H]1CCCCO[C@H](CN(C)C(=O)c2ccncc2)[C@@H](C)CN([C@H](C)CO)C(=O)c2cc(NC(=O)C3CCCCC3)ccc2O1 | inactive: 0.998
30 | Cc1ccc(OC(=O)N(C)C[C@H]2OCc3ccccc3-c3ccccc3C(=O)N([C@H](C)CO)C[C@@H]2C)cc1 | inactive: 0.98
31 | Nc1ncnc2c1ncn2[C@@H]1C=C[C@H](CO)O1 | inactive: 0.995
32 | C[C@@H]1CN([C@H](C)CO)S(=O)(=O)c2ccc(-c3cccnc3)cc2O[C@@H]1CN(C)C(=O)NC1CCCCC1 | inactive: 1.01
33 | O=C(O)CCCCC(=O)O | inactive: 0.967
34 | C[C@@H]1CN([C@H](C)CO)C(=O)c2cccc(NC(=O)c3ccncc3)c2O[C@H]1CN(C)Cc1ccncc1 | inactive: 0.98
35 | C[C@@H]1CCCCO[C@H](CN(C)S(=O)(=O)c2ccccc2)[C@@H](C)CN([C@H](C)CO)C(=O)c2cc(NS(C)(=O)=O)ccc2O1 | inactive: 0.984
36 | COc1ccc(NC(=O)Nc2cccc3c2O[C@@H](CN(C)C(=O)Nc2cccc4ccccc24)[C@H](C)CN([C@H](C)CO)C3=O)cc1 | inactive: 1.01
37 | C[C@@H]1CN([C@@H](C)CO)C(=O)c2c(c3ccccc3n2C)-c2ccccc2CO[C@@H]1CN(C)Cc1ccc(F)cc1 | inactive: 1.01
38 | CC(C)C#Cc1cnc2c(c1)C(=O)N([C@@H](C)CO)C[C@@H](C)[C@H](CN(C)S(=O)(=O)c1cn(C)cn1)O2 | inactive: 0.998
39 | C[C@H](CO)N1C[C@H](C)[C@H](CN(C)CC2CCCCC2)OCCCC[C@H](C)Oc2ccc(NC(=O)NC3CCCCC3)cc2C1=O | inactive: 0.947
40 | CCc1c(O)nc2ccccn2c1=O | inactive: 0.98

Row | Compound | relative growth
41 | C/C=C/c1ccc2c(c1)O[C@H](CN(C)Cc1ccc(C(=O)O)cc1)[C@@H](C)CN([C@@H](C)CO)S2(=O)=O | inactive: 1.06
42 | COc1ccc(NC(=O)N(C)C[C@@H]2Oc3c(NC(=O)c4ccc(-c5nccs5)cc4)cccc3C(=O)N([C@H](C)CO)C[C@H]2C)cc1 | inactive: 0.927
43 | C[C@@H]1CCCCO[C@H](CN(C)Cc2ccc(Cl)c(Cl)c2)[C@H](C)CN([C@@H](C)CO)C(=O)c2cc(NC(=O)CCC(F)(F)F)ccc2O1 | inactive: 1.01
44 | C[C@@H]1CN([C@H](C)CO)C(=O)CCCn2cc(nn2)CO[C@H]1CN(C)C(=O)Nc1ccc(N2CCCCC2)cc1 | inactive: 0.978
45 | C[C@H]1CN([C@@H](C)CO)C(=O)Cc2cc(NS(C)(=O)=O)ccc2O[C@@H]1CN(C)S(=O)(=O)c1ccc(F)cc1 | inactive: 1.03
46 | COc1ccc(S(=O)(=O)Nc2ccc3c(c2)C(=O)N([C@@H](C)CO)C[C@@H](C)[C@H](CN(C)Cc2ccc(C(=O)O)cc2)OCCCC[C@@H](C)O3)cc1 | inactive: 0.984
47 | NCC[C@@H]1CC[C@@H](NC(=O)Nc2ccc(F)cc2)[C@@H](CO)O1 | inactive: 0.984
48 | CCSc1ncnc(N)n1 | inactive: 1.03
49 | C[C@@H]1CN([C@H](C)CO)S(=O)(=O)c2ccc(-c3ccc(F)cc3)cc2O[C@@H]1CN(C)C(=O)C1CCOCC1 | inactive: 1.01
50 | C=CC1(C)CC(=O)C2(O)C(C)(O1)C(O)C(O)C1C(C)(C)CCC(O)C12C (stereo not given) | inactive: 0.925
51 | Cc1coc2c1C(=O)C(=O)c1c-2ccc2c1CCCC2(C)C | inactive: 1.12
52 | NC(CO)C(=O)O (stereo not given) | inactive: 1.08
53 | COc1ccc(NC(=O)N(C)C[C@@H]2Oc3ncc(C#CC(C)C)cc3C(=O)N([C@@H](C)CO)C[C@@H]2C)cc1 | inactive: 0.977
54 | O=C(/C=C/c1ccc(O)c(O)c1)O[C@H]1[C@H](O)C[C@](O)(C(=O)O)C[C@H]1O | inactive: 1.02
55 | C[C@@H]1CN([C@@H](C)CO)C(=O)c2cccc(NC(=O)C3CCOCC3)c2O[C@@H]1CN(C)S(=O)(=O)c1ccc(F)cc1 | inactive: 0.993
56 | C[C@H](NC(=O)N(C)C[C@H]1OCc2ccccc2-c2c(n(C)c3ccccc23)C(=O)N([C@@H](C)CO)C[C@H]1C)c1ccccc1 | inactive: 0.998
57 | C[C@@H]1CN([C@@H](C)CO)C(=O)Cc2cc(NS(C)(=O)=O)ccc2O[C@@H]1CN(C)Cc1ccc2c(c1)OCO2 | inactive: 1.01
58 | Cc1ccc(S(=O)(=O)Nc2ccc3c(c2)C(=O)N([C@H](C)CO)C[C@H](C)[C@@H](CN(C)C(=O)NC(C)C)O3)cc1 | inactive: 0.995
59 | CO[C@H](CN(C)C(=O)c1ccc2c(c1)OCO2)[C@H](C)CN([C@H](C)CO)S(=O)(=O)c1ccc(F)cc1 | inactive: 1.04
60 | CC(C)(C)NC(=O)N1CCC(CN)CC1 | inactive: 1.01
